B1: STIM1 […] (characterized in vitro) (domain or fragment)
chain: not shown
notes: signal peptide in the construct; it may be the CFP fusion m33
B2: SOAR (recombinant, in vitro gel filtration) (domain or fragment)
chain: not shown
notes: probably from pMCSG9-SOAR as m15; also called dimeric SOAR; source: recombinant

How the values were obtained:
[1] = target: the molecule itself; assay: SEC + native gel or EMSA; in vitro, with or without Ca^2+; detergents needed to keep the proteins soluble
[2] = target: the molecule itself; assay: SEC; in vitro gel filtration elution profiles of SOAR (Supplementary Fig. 2f), without detergent

Row | Protein | stoichiometry N [1] | stoichiometry N [2]
1 | B1 | 2 | 
2 | B2 |  | 2
